This note sets out measurements from the BET-seq Pho4 binding data (Le et al. 2018).

Some of the results follow. These are noisy estimates, calculated here from bound and input reads.

This assay addresses T1, Pho4 (S. cerevisiae) (UniProt P07270).
T1 sequence: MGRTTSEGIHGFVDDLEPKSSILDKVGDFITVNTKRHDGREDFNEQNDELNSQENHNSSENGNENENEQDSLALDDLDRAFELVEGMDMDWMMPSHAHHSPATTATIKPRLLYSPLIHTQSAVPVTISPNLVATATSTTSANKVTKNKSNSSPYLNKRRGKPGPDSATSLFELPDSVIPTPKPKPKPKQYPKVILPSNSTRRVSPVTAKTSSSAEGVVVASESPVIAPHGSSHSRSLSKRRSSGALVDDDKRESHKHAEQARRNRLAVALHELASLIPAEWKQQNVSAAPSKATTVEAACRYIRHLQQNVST
In words: relative binding free energy (BET-seq); higher = weaker binding. Particulars: reference: library average.
CTTATCACGTGGTGGT: the “relative binding free energy” value was 0.293 kJ/mol.
With TTACGCACGTGGCGGT the figure was -0.46 kJ/mol; with AGTTCCACGTGTTTAT, 0.0418 kJ/mol.
With AGGGGCACGTGCTGTG the figure was -0.879 kJ/mol.
With ATTTGCACGTGTACTT the figure was 0.544 kJ/mol; with ATATGCACGTGGAGTA, -0.753 kJ/mol.
For the sequence TCATACACGTGTTTTT, the “relative binding free energy” value was determined as 0.669 kJ/mol.
With TTAGGCACGTGGAAAG the figure was -0.167 kJ/mol.
With GGGTTCACGTGAGTTT the figure was 1.92 kJ/mol; with CGATTCACGTGTGGTT, 1.59 kJ/mol; with TTTGCCACGTGTGTGA, -0.669 kJ/mol.
On to TTGAACACGTGTCGTA, for which the “relative binding free energy” value is 0.418 kJ/mol.
As for GTTTTCACGTGTCAAG, the “relative binding free energy” value was 1.3 kJ/mol.
The figure for GGAGGCACGTGTGAAT is 0 kJ/mol; for TGGGTCACGTGTATTG it is 0.418 kJ/mol; for GGAGACACGTGGAATG it is 0.502 kJ/mol.
For CTTGGCACGTGATGGG, the “relative binding free energy” value was -0.167 kJ/mol.
With CAGGTCACGTGGACTG the figure was 0.669 kJ/mol; with CTGAGCACGTGGGATT, -0.0837 kJ/mol.
With GGTGGCACGTGCATAG the figure was -1.09 kJ/mol.
Turning to GTGGACACGTGCGATG, the “relative binding free energy” value came out at 0.0837 kJ/mol.
GTGTACACGTGGCTAG: the “relative binding free energy” value is -0.167 kJ/mol.
With ATGTGCACGTGGGCTA the figure was -0.418 kJ/mol.
The figure for ATGTTCACGTGTCTGT is 0.962 kJ/mol; for TGTTGCACGTGTTGTC it is 0.293 kJ/mol; for ATTGGCACGTGTGTAC it is -0.418 kJ/mol.
The figure for GAATTCACGTGGTGGA is 0.879 kJ/mol.
In the case of TTTTGCACGTGGGGTT, the “relative binding free energy” value was -0.377 kJ/mol.
The figure for GGATACACGTGGTGTA is -0.711 kJ/mol; for AAATCCACGTGGTGGG it is -0.293 kJ/mol; for AGGATCACGTGGGGGA it is -0.293 kJ/mol.
Turning to TATTTCACGTGAGGTG, the “relative binding free energy” value was 1.63 kJ/mol.
With GTTTGCACGTGCTATT the figure was 0.335 kJ/mol; with TATTTCACGTGGGCTG, 0.711 kJ/mol; with TATGGCACGTGTAGAC, 0.377 kJ/mol.
The figure for GCTGTCACGTGTTATT is 1.09 kJ/mol.
With CATTGCACGTGGGTTG the figure was -0.586 kJ/mol.
With TTATACACGTGTTCTT, the “relative binding free energy” value was 0.251 kJ/mol.
The figure for ATGGGCACGTGAGCCG is 0.0418 kJ/mol; for GAGTTCACGTGGCTGA it is 1.84 kJ/mol; for GTGGGCACGTGTATTT it is 0.293 kJ/mol.
With TTAATCACGTGTTGAG the figure was 0.251 kJ/mol; with GGTATCACGTGGGAGT, 0.0837 kJ/mol.
In the case of AGAATCACGTGGGTAT, the “relative binding free energy” value stood at 0.251 kJ/mol.
With TTTAACACGTGGCAGG the figure was -0.837 kJ/mol.
With TGTTACACGTGTATGT the figure was 0.335 kJ/mol.
The figure for TCTGACACGTGTGGTA is 0.879 kJ/mol; for GGTGACACGTGTAGTA it is -0.377 kJ/mol.
Consider GTTTCCACGTGGATGT, for which the “relative binding free energy” value is 0.418 kJ/mol.
The figure for ATTTCCACGTGGGGTG is -0.669 kJ/mol; for ATTATCACGTGTTTAT it is 0.795 kJ/mol; for AATAGCACGTGGTATG it is -0.628 kJ/mol.
With ATCGTCACGTGGATGG the figure was 0.0418 kJ/mol.
The figure for AGTGTCACGTGGGTGG is -0.251 kJ/mol.
Take AAGGGCACGTGTAGGC: the “relative binding free energy” value was -0.126 kJ/mol.
The figure for TCGGACACGTGGTTTT is 0.0418 kJ/mol; for GGGGACACGTGTTGGA it is -0.0418 kJ/mol; for GCGTTCACGTGGAGGG it is 1 kJ/mol.
The figure for CATCGCACGTGTAGGG is 0.628 kJ/mol; for CTGTTCACGTGATTAG it is 0.753 kJ/mol; for GGGAGCACGTGGTGGG it is -0.669 kJ/mol.
With GATTGCACGTGGAGGG the figure was 0.209 kJ/mol; with TTGCGCACGTGGATTT, 0.209 kJ/mol; with GTCGGCACGTGATTAT, 0.418 kJ/mol.
As to AAGTACACGTGTTGGT, the “relative binding free energy” value was 0.418 kJ/mol.
For the sequence CTTTGCACGTGGTGGG, the “relative binding free energy” value was -0.628 kJ/mol.
The figure for AGGTGCACGTGATCGT is 0.126 kJ/mol; for TCTGTCACGTGCTTGT it is 0 kJ/mol; for TAATTCACGTGGAAAT it is 1.38 kJ/mol.
As for CTTGGCACGTGTCTGT, the “relative binding free energy” value is -0.418 kJ/mol.
For the sequence GATTCCACGTGTGGGC, the “relative binding free energy” value came to 1.17 kJ/mol.
The figure for AGTTACACGTGTTTAG is 0.0418 kJ/mol.
The figure for ACTTGCACGTGGGGGT is -1.05 kJ/mol; for TGGGTCACGTGGCTCG it is -0.293 kJ/mol.
The figure for GGGCACACGTGGGGAT is 0.418 kJ/mol; for ATGAGCACGTGGAAGG it is 0.711 kJ/mol; for TATTCCACGTGTATTG it is -0.0418 kJ/mol.
Regarding CTGCGCACGTGTTGGT, the “relative binding free energy” value was -0.586 kJ/mol.
With GTAGGCACGTGGCAAG the figure was -0.753 kJ/mol; with GCAAACACGTGGGTGT, -0.209 kJ/mol.
With TAAGGCACGTGATTAT the figure was 0.126 kJ/mol; with AAGGACACGTGGTGCT, 0.0837 kJ/mol.
Take GGGAGCACGTGGCTTT: the “relative binding free energy” value was -0.209 kJ/mol.
Take AGTAGCACGTGGCTTT: the “relative binding free energy” value is -0.879 kJ/mol.
The figure for TGTTTCACGTGTCTAA is 1.13 kJ/mol; for CTCTGCACGTGTTGTT it is -0.377 kJ/mol.
The figure for ATTCTCACGTGGTGGG is 0.795 kJ/mol; for ATGTTCACGTGTTGTG it is 1.09 kJ/mol.
With AGTTTCACGTGGGATC the figure was 1.21 kJ/mol.
Regarding TTGTTCACGTGTTAAT, the “relative binding free energy” value turned out to be 1.26 kJ/mol.
With TCATTCACGTGTGTAT the figure was 1.05 kJ/mol.
The figure for GGGAACACGTGCGTGG is -0.126 kJ/mol; for TATCGCACGTGTTCGG it is -0.46 kJ/mol.
With ATCGGCACGTGTGAGG the figure was -0.167 kJ/mol; with GTAGGCACGTGGTGCA, -0.293 kJ/mol.
Turning to TGTAACACGTGATTGC, the “relative binding free energy” value was 0.92 kJ/mol.
In the case of AGGACCACGTGGGTGG, the “relative binding free energy” value is -0.46 kJ/mol.
For TATAGCACGTGGGGGA, the “relative binding free energy” value was -0.962 kJ/mol.
The figure for GGTGACACGTGGGGGC is -0.0418 kJ/mol; for TACTTCACGTGTTCGG it is 1.46 kJ/mol; for TTGGGCACGTGAAGGT it is 0.418 kJ/mol.
With AGGTTCACGTGCGCGT the figure was 0.209 kJ/mol; with ATCGGCACGTGAGGTC, 0.502 kJ/mol.
With GTCGTCACGTGGTAGT the figure was 0.418 kJ/mol; with GGTGACACGTGGGAAT, -0.335 kJ/mol.
Regarding GCGAACACGTGTGGTT, the “relative binding free energy” value was 0.753 kJ/mol.
The figure for ATTTCCACGTGATGGG is 1.26 kJ/mol; for AGAGGCACGTGTAGCT it is -0.418 kJ/mol.
With GGTGTCACGTGCGGCG the figure was 0.418 kJ/mol; with GTATGCACGTGTAGCT, 0.586 kJ/mol.
With GGGAGCACGTGGGCCT the figure was -0.795 kJ/mol.
For CTTCACACGTGGGTTT, the “relative binding free energy” value came out at 0.126 kJ/mol.
For the sequence AGGGGCACGTGTATAG, the “relative binding free energy” value is -0.251 kJ/mol.
With ATAGGCACGTGATTGT the figure was -0.251 kJ/mol; with GTTGTCACGTGCCGGT, 0.293 kJ/mol.
